# Experimental data taken from the supplement of paper PMC9135407.
# Where “and” joins values, the source holds several entries; their conditions need not be identical. Identical values can stand only once. Counter-ions that a name gives are not always drawn. The whole screen tested about 5,800 compounds, of which about 620 (11%) showed activity.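 The calls were made as follows: active = score above a cut-off or among the top three wells of a plate; in these data no inactive exceeds 0.85.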 The list shows a part of the results, in another mix than the full data.
# System: primary human hepatic stellate cells (donor 1)
# Experiment: scaled lipid accumulation score (0 = DMSO-like, 1 = nortriptyline-like); higher = stronger HSC inactivation (lipid re-accumulation), active = hit call of the paper
# Details: 48 h
# [1] = library stock concentration: 1 mM
# [2] = library stock concentration: 3.33 mM
# [3] = library stock concentration: 10 mM
# [4] = library stock concentration: 13.1 mM
# [5] = library stock concentration: 15.4 mM
smiles,measurement,setting,value
CC(C)[C@H](C(=O)Nc1ccc(C(=O)NO)cc1)c1ccccc1,scaled lipid accumulation score,[1],inactive: 0.3
same,scaled lipid accumulation score,[2],inactive: 0.53
same,scaled lipid accumulation score,[3],inactive: 0.523
N[C@H]1CCN(O)C1=O,scaled lipid accumulation score,[3],inactive: ≤ 0
COc1ccccc1OCCNCC(O)COc1cccc2[nH]c3ccccc3c12 (stereo unspecified) [Carvedilol],scaled lipid accumulation score,[3],active: 1.1
COc1ccc([C@@H]2CNC(=O)C2)cc1OC1CCCC1 [(R)-(-)-Rolipram],scaled lipid accumulation score,[3],inactive: ≤ -0.006
Nc1ccc(S(=O)(=O)Nc2ncccn2)cc1 [Sulfadiazine],scaled lipid accumulation score,,inactive: ≤ 0
same,scaled lipid accumulation score,[2],inactive: ≤ 0
same,scaled lipid accumulation score,library stock concentration: 8 mM,inactive: 0.029 and inactive: ≤ 0
same,scaled lipid accumulation score,[3],inactive: ≤ 0 and inactive: 0.006
CCCC(C)NC(=O)c1ccc(Cl)c(Cl)c1 (stereo unspecified),scaled lipid accumulation score,[2],inactive: ≤ -0.009
same,scaled lipid accumulation score,[3],inactive: ≤ 0
C=CCc1cc(OC)c(O)c(C(=O)NCCO)c1 [Alibendol],scaled lipid accumulation score,[2],inactive: 0.026
same,scaled lipid accumulation score,[3],inactive: ≤ 0
CO[C@@]1(NC(=O)C(C(=O)O)c2ccc(O)cc2)C(=O)N2C(C(=O)O)=C(CSc3nnnn3C)CO[C@@H]21 (stereo partly specified) [Moxalactam disodium],scaled lipid accumulation score,library stock concentration: 3.5 mM,inactive: ≤ -0.001
same,scaled lipid accumulation score,[3],inactive: ≤ 0
CO[C@@]1(NC(=O)C(C(=O)O)c2ccc(O)cc2)C(=O)N2C(C(=O)O)=C(CSc3nnnn3C)CO[C@@H]21 (stereo partly specified) [Moxalactam disodium salt],scaled lipid accumulation score,,inactive: ≤ 0
CN(CCc1ccc(Cl)c(Cl)c1)CC(O)COc1ccc(NS(C)(=O)=O)cc1 (stereo unspecified),scaled lipid accumulation score,[3],inactive: 0.524
Nc1[nH]nc2nc3ccccc3nc12,scaled lipid accumulation score,[3],inactive: ≤ -0.006
COc1cc2c(CCNC(C)=O)c[nH]c2cc1O [6-Hydroxymelatonin],scaled lipid accumulation score,[3],inactive: 0.044
O=C1CC[C@@H](C(=O)O)N1,scaled lipid accumulation score,[3],inactive: ≤ 0
CC(C)NC[C@H](O)COc1ccc(CCOCC2CC2)cc1 [Levobetaxolol HCl],scaled lipid accumulation score,[2],inactive: ≤ 0
same,scaled lipid accumulation score,[3],inactive: 0.148
COC(=O)C1=C(C)NC(C)=C(C(=O)OC)C1c1ccccc1[N+](=O)[O-] [Nifedipine],scaled lipid accumulation score,,inactive: 0.13
same,scaled lipid accumulation score,[2],inactive: ≤ 0
same,scaled lipid accumulation score,library stock concentration: 5.8 mM,inactive: ≤ -0.006 and inactive: ≤ -0.001
same,scaled lipid accumulation score,[3],inactive: ≤ 0 and inactive: ≤ -0.055 and inactive: 0.034
COC(=O)C1=C(C)NC(C)=C(C(=O)OC)C1c1ccccc1[N+](=O)[O-],scaled lipid accumulation score,[3],inactive: ≤ 0
N#Cc1ccc(NCCNCC(=O)N2CCC[C@H]2C#N)nc1 [NVP DPP 728 dihydrochloride],scaled lipid accumulation score,[3],inactive: ≤ 0
COc1cc(N2CCN(C)CC2)ccc1Nc1nccc(-c2cn(C)c3cnccc23)n1,scaled lipid accumulation score,[2],inactive: ≤ -0.009
same,scaled lipid accumulation score,[3],inactive: 0.446
CNC(=O)[C@H]1O[C@@H](n2cnc3c(NCc4ccc(N)cc4)ncnc32)[C@H](O)[C@@H]1O,scaled lipid accumulation score,[3],inactive: 0.11
CN(C)c1nc(N)c(C(=O)Nc2cccnc2)nc1Cl [ACDPP hydrochloride],scaled lipid accumulation score,[3],inactive: ≤ -0.001
COc1cc2c(cc1O)CC[C@@H]1[C@@H]2CC[C@]2(C)[C@@H](O)CC[C@@H]12 [2-methoxyestradiol],scaled lipid accumulation score,[3],inactive: 0.157
COc1cc2c(cc1O)CC[C@@H]1[C@@H]2CC[C@]2(C)[C@@H](O)CC[C@@H]12 [2-Methoxyestradiol],scaled lipid accumulation score,[3],inactive: ≤ -0.006
COc1cc2c(cc1O)CC[C@@H]1[C@@H]2CC[C@]2(C)[C@@H](O)CC[C@@H]12 [2-Methoxyestradiol (2-MeOE2)],scaled lipid accumulation score,[2],inactive: ≤ 0
same,scaled lipid accumulation score,[3],inactive: ≤ 0
CCN(CC)CCOC(=O)C1(c2ccc([N+](=O)[O-])cc2)CCCC1 [Nitrocaramiphen hydrochloride],scaled lipid accumulation score,,inactive: 0.328
same,scaled lipid accumulation score,[3],inactive: 0.44
CCc1cccc(N(C)C(=N)Nc2cccc3ccccc23)c1.Cl,scaled lipid accumulation score,[3],active: 0.912
COc1cc(Br)c(S(=O)(=O)Nc2ccc(Cl)c(O[C@@H]3CCN(C)C3)c2)cc1OC,scaled lipid accumulation score,[3],inactive: 0.116
CCC(=O)O[C@H](CC(=O)O)C[N+](C)(C)C,scaled lipid accumulation score,[3],inactive: ≤ 0
Clc1ccccc1CN1CCc2sccc2C1,scaled lipid accumulation score,[3],inactive: ≤ 0
Clc1ccccc1CN1CCc2sccc2C1 [Ticlopidine HCl],scaled lipid accumulation score,library stock concentration: 7.6 mM,inactive: 0.018
Clc1ccccc1CN1CCc2sccc2C1 [Ticlopidine hydrochloride],scaled lipid accumulation score,,inactive: ≤ 0
same,scaled lipid accumulation score,library stock concentration: 6.7 mM,inactive: ≤ 0
COc1cc2ncnc(Nc3ccc(F)c(Cl)c3)c2cc1NC(=O)C=CCN1CCCCC1,scaled lipid accumulation score,[2],active: 1.08
Nc1ccc(O)c(C(=O)O)c1 [5-Aminosalicylic Acid],scaled lipid accumulation score,[1],inactive: ≤ 0
Nc1ccc(O)c(C(=O)O)c1 [5-Amino-2-hydroxy-benzoic acid],scaled lipid accumulation score,[3],inactive: ≤ 0
Nc1ccc(O)c(C(=O)O)c1 [5-aminosalicylic acid],scaled lipid accumulation score,[4],inactive: ≤ 0
Nc1ccc(O)c(C(=O)O)c1 [Mesalamine],scaled lipid accumulation score,,inactive: ≤ 0
same,scaled lipid accumulation score,[2],inactive: ≤ 0
same,scaled lipid accumulation score,[3],inactive: ≤ 0
same,scaled lipid accumulation score,[4],inactive: ≤ 0
Cc1cc(NC(=O)C2=C(O)c3ccccc3S(=O)(=O)N2C)no1 [Isoxicam],scaled lipid accumulation score,,inactive: 0.092
same,scaled lipid accumulation score,library stock concentration: 6 mM,inactive: ≤ 0
same,scaled lipid accumulation score,[3],inactive: ≤ -0.027
Cc1cc(C(C)(C)CC(C)(C)C)ccc1OCCOCC[N+](C)(C)Cc1ccccc1 [Methyl benzethonium chloride],scaled lipid accumulation score,,inactive: 0.451
Cc1cc(C(C)(C)CC(C)(C)C)ccc1OCCOCC[N+](C)(C)Cc1ccccc1 [Methylbenzethonium chloride],scaled lipid accumulation score,[3],inactive: 0.276
O=C1NC(=O)/C(=C\c2ccc3nccnc3c2)S1,scaled lipid accumulation score,[1],inactive: ≤ 0
same,scaled lipid accumulation score,[3],inactive: ≤ -0.055
CO[C@@]1(NC(=O)C2SC(=C(C(N)=O)C(=O)O)S2)C(=O)N2C(C(=O)O)=C(CSc3nnnn3C)CS[C@@H]21 (stereo partly specified) [Cefotetan],scaled lipid accumulation score,,inactive: ≤ 0
CN(C)S(=O)(=O)c1ccc2c(c1)/C(=C/c1cc3c([nH]1)CCCC3)C(=O)N2,scaled lipid accumulation score,[3],active: 0.958
CC(=O)Oc1cc(C(F)(F)F)ccc1C(=O)O [Triflusal],scaled lipid accumulation score,,inactive: ≤ 0
same,scaled lipid accumulation score,[2],inactive: ≤ 0
same,scaled lipid accumulation score,[3],inactive: ≤ -0.001
CCCCCCCC/C=C\CCCCCCCC(=O)NCc1ccc(O)c(OC)c1 [Olvanil],scaled lipid accumulation score,[1],inactive: ≤ 0
same,scaled lipid accumulation score,[3],inactive: 0.073 and inactive: 0.023
N=c1ccn2c(n1)O[C@H]1[C@H](O)[C@@H](CO)O[C@H]12 [Cyclocytidine HCl],scaled lipid accumulation score,[2],inactive: ≤ 0
same,scaled lipid accumulation score,library stock concentration: 8.9 mM,inactive: ≤ 0
same,scaled lipid accumulation score,[3],inactive: ≤ 0
N=c1ccn2c(n1)O[C@H]1[C@H](O)[C@@H](CO)O[C@H]12 [Ancitabine hydrochloride],scaled lipid accumulation score,[3],inactive: 0.277 and inactive: ≤ -0.027
CNC(=O)c1ccc2cc([C@@]3(O)CCn4cncc43)ccc2c1 [TAK-700 (Orteronel)],scaled lipid accumulation score,[2],inactive: ≤ 0
same,scaled lipid accumulation score,[3],inactive: 0.084
CN(C)CCCN1c2ccccc2Sc2ccc(Cl)cc21.Cl [Chlorpromazine HCl],scaled lipid accumulation score,[3],active: 0.833
C[C@]12C=CC(=O)C=C1CC[C@@H]1[C@@H]2[C@@H](O)C[C@@]2(C)[C@H]1CC[C@]2(O)C(=O)CO [Prednisolone],scaled lipid accumulation score,,inactive: ≤ 0
same,scaled lipid accumulation score,[2],inactive: ≤ 0
same,scaled lipid accumulation score,[3],inactive: 0.102 and inactive: ≤ 0
O=C(O)c1cc(=O)c2cccc(O)c2[nH]1 [Xanthurenic acid],scaled lipid accumulation score,[3],inactive: ≤ 0
O=c1[nH]cc(F)c(=O)[nH]1 [5-fluorouracil],scaled lipid accumulation score,[5],inactive: ≤ 0
O=c1[nH]cc(F)c(=O)[nH]1 [5-Fluorouracil],scaled lipid accumulation score,[3],inactive: ≤ -0.07
"O=c1[nH]cc(F)c(=O)[nH]1 [Fluorouracil (5-Fluoracil, 5-FU)]",scaled lipid accumulation score,[2],inactive: ≤ 0
same,scaled lipid accumulation score,[3],inactive: ≤ 0
O=c1[nH]cc(F)c(=O)[nH]1 [Fluorouracil],scaled lipid accumulation score,[3],inactive: ≤ 0
same,scaled lipid accumulation score,[5],inactive: 0.007
O=c1[nH]cc(F)c(=O)[nH]1,scaled lipid accumulation score,[3],inactive: ≤ 0
N#CCNC(=O)c1ccc(-c2ccnc(Nc3ccc(N4CCOCC4)cc3)n2)cc1 [Momelotinib (CYT387) (10 mM)],scaled lipid accumulation score,[3],active: 0.945
N#CCNC(=O)c1ccc(-c2ccnc(Nc3ccc(N4CCOCC4)cc3)n2)cc1 [Momelotinib (CYT387) (2 mM)],scaled lipid accumulation score,library stock concentration: 2 mM,active: 0.858
CS(=O)(=O)c1ccc([C@@H](O)[C@@H](CO)NC(=O)C(Cl)Cl)cc1 [Thiamphenicol],scaled lipid accumulation score,,inactive: ≤ 0
same,scaled lipid accumulation score,[2],inactive: ≤ 0
same,scaled lipid accumulation score,[3],inactive: ≤ 0 and inactive: ≤ -0.026
CC(C)Cc1ccc([C@H](C)C(=O)O)cc1 [S-(+)-ibuprofen],scaled lipid accumulation score,,inactive: ≤ 0
CC(C)Cc1ccc([C@H](C)C(=O)O)cc1 [S(+)-Ibuprofen],scaled lipid accumulation score,[3],inactive: ≤ -0.055
"CCCCCCCCC#CCC#CCC#CCCCC(=O)O [5,8,11-Eicosatriynoic Acid]",scaled lipid accumulation score,[1],inactive: 0.059
"CCCCCCCCC#CCC#CCC#CCCCC(=O)O [5,8,11-Eicosatriynoic acid]",scaled lipid accumulation score,[1],inactive: ≤ -0.021
C[C@@H](c1ncncc1F)[C@](O)(Cn1cncn1)c1ccc(F)cc1F [Voriconazole],scaled lipid accumulation score,[2],inactive: 0.004
same,scaled lipid accumulation score,[3],inactive: ≤ 0
C[C@@H](c1ncncc1F)[C@](O)(Cn1cncn1)c1ccc(F)cc1F,scaled lipid accumulation score,library stock concentration: 9.9 mM,inactive: ≤ 0
Cc1nn(C)c2nc(NNC(=O)Nc3cc(Cl)nc(Cl)c3)cc(C(C)C)c12,scaled lipid accumulation score,[1],inactive: ≤ 0
same,scaled lipid accumulation score,[3],inactive: ≤ -0.001
O=C(O)Cc1ccccc1Nc1c(Cl)cccc1Cl [Diclofenac Diethylamine],scaled lipid accumulation score,[2],inactive: ≤ 0
same,scaled lipid accumulation score,[3],inactive: ≤ 0
O=C(O)Cc1ccccc1Nc1c(Cl)cccc1Cl [Diclofenac Sodium],scaled lipid accumulation score,[2],inactive: ≤ 0
same,scaled lipid accumulation score,[3],inactive: 0.007
O=C(O)Cc1ccccc1Nc1c(Cl)cccc1Cl [Diclofenac Potassium],scaled lipid accumulation score,[2],inactive: ≤ 0
same,scaled lipid accumulation score,[3],inactive: ≤ 0
O=C(O)Cc1ccccc1Nc1c(Cl)cccc1Cl,scaled lipid accumulation score,[3],inactive: ≤ 0
O=C(O)Cc1ccccc1Nc1c(Cl)cccc1Cl [Diclofenac (sodium salt)],scaled lipid accumulation score,[1],inactive: ≤ 0
O=C(O)Cc1ccccc1Nc1c(Cl)cccc1Cl [Diclofenac sodium],scaled lipid accumulation score,,inactive: 0.036
same,scaled lipid accumulation score,library stock concentration: 6.3 mM,inactive: 0.003
same,scaled lipid accumulation score,[3],inactive: ≤ -0.07 and inactive: ≤ 0
